Out of some 48,000 compounds screened, about 450 (0.94%) were called active. Another 19% or so got no clear call; they are omitted. Calls follow the shape of the dose curve; as a rule, active = well fitted inhibition curve with a large enough effect; inconclusive = small, poorly fitted or top-dose-only effect; inactive = no such curve, though single readings can be large or run the other way. This is one part of the list.

The results in this text go back to PubChem BioAssay AID1508623 (National Center for Advancing Translational Sciences (NCATS), 2021).

This assay in a line: Primary qHTS for Identification of Small Molecule Inhibitors of Huntingtin Promoter Activity. Also: nearly all actives have a fitted effect of over 50% in size. Conditions: HEK293 HTT promoter firefly luciferase reporter (activity 0% = vehicle and -100% = no light), 24 h; series mostly up to 57.5 µM; activity change, negative = inhibition: at the top concentration. The gist of the method: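 HEK293 luciferase promoter-reporter cells (2,500/well) plated 24 h, then compounds added at up to 57.5 uM final for 24 h at 37 °C. Firefly luminescence by Dual-Glo, normalized to vehicle (0%) and zero RLU (-100%).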
In general terms: In qHTS, concentration-response curves come from the screen itself.
Turning to `CCOc1ccccc1CN(CCc1ccc2c(c1)OCO2)Cc1cccc(OC)c1OC`, the “activity change, negative = inhibition” value is inactive: -35.6%. The figure for `CN(C)c1ccc(NC(=O)CSC2=Nc3ccccc3C3=NC(CC(=O)NCc4ccccc4)C(=O)N23)cc1` (stereo not given) is inactive: -4.59%; for `CCN1CCC(N(Cc2ccc3c(c2)OCO3)C(=O)Nc2ccccc2OC)CC1` it is inactive: -10.6%. In the case of `CCOC(=O)c1c(C)[nH]c(CCC(=O)NCc2ccccc2C)c1C`, the “activity change, negative = inhibition” value is inactive: -6.81%.

Take `COc1cc(NC(=O)C(CCS(C)(=O)=O)N2Cc3ccccc3C2=O)cc(OC)c1OC` (stereo not given): the “activity change, negative = inhibition” value was inactive: -20.4%. Next, `CCCN1C(=O)c2[nH]nc(-c3ccc(F)cc3)c2C1c1ccccn1` (stereo not given): inactive: -4.21%; `Cc1ccc(N2CC(c3nnc(NC(=O)c4ccco4)s3)CC2=O)cc1C` (stereo not given): inactive: -10.6%; `O=C(NC1CCCC1)c1ccc(CSc2nc3ccncc3n2Cc2ccc(F)cc2)cc1`: inactive: -32.6%. The figure for `COc1ccc(-n2cc(C(=O)NC(C)c3ccccc3)c3ccccc3c2=O)cc1` (stereo not given) is inactive: -10.8%; for `CCCCC[C@H](O)C=C[C@H]1[C@H](O)CC(=O)[C@H]1CC=CCCCC(=O)O` it is inactive: -7.85%. The figure for `CCOc1ccc(NC(=O)c2ccc(-c3cccc(Cl)c3C)o2)cc1` is inactive: 7.08%; for `Cc1cccc(C2C=C(c3ccc(F)cc3)Nc3nc4ccccc4n32)c1` (stereo not given) it is inactive: 51.9%. As to `CCOc1ccc(Cn2c(CNS(=O)(=O)c3ccc([N+](=O)[O-])cc3)nc3cccnc32)cc1`, the “activity change, negative = inhibition” value was inactive: -7.14%.

`COCCn1ccc2c(OCC(=O)NCc3ccc(F)cc3)cccc2c1=O`: the “activity change, negative = inhibition” value is inactive: -2.54%. Take `O=C(Nc1nc2cccc(-c3ccc(CN4CCS(=O)(=O)CC4)cc3)n2n1)C1CC1`: the “activity change, negative = inhibition” value is inactive: 25.3%. The figure for `CN(C)c1ccc(CNC(=O)C2CCN(S(=O)(=O)c3cn(C)cn3)CC2)cc1` is inactive: -9.58%; for `COc1ccc(NC(=O)c2cc(C3CC3)nc3c2c(C)nn3-c2ccc(C)cc2)cc1OC` it is inactive: -13.6%; for `COc1ccccc1CNC(=O)c1oc2c(c1C)-c1nn(Cc3ccc(Cl)cc3)cc1CC2` it is inactive: -21%.

Consider `COc1ccc(NC(=O)c2sc3nc(-c4cc5cccc(OC)c5oc4=O)[nH]c(=O)c3c2C)cc1`, for which the “activity change, negative = inhibition” value is inactive: -11.9%. As to `COc1cccc(CNC(=O)NCc2noc3ccc(C)cc23)c1`, the “activity change, negative = inhibition” value is inactive: -18.6%. Next, `Cc1ccc(NC(=O)CN2C=NS(=O)(=O)c3ccccc32)c(C)c1`: inactive: -9.71%; `COc1ccc(N2CCN(C(=O)CCS(=O)(=O)c3cc(Br)cc4c3N(C(=O)C3CC3)CC4)CC2)cc1`: inactive: -13.9%; `COc1ccc(NC(=O)CN2C(=O)COc3ccc(S(=O)(=O)N4CCOCC4)cc32)cc1Cl`: inactive: -10.9%. Turning to `COc1ccc(NC(=O)Nc2nnc(N3CCCCCC3)s2)c(OC)c1`, the “activity change, negative = inhibition” value was inactive: -27.5%. The figure for `COc1cccc(-n2c(=O)c3cc(OC)c(OC)cc3n(CC(=O)Nc3ccccc3)c2=O)c1` is inactive: -16.2%; for `O=C(c1ccc2c(c1)N(Cc1ccc(F)cc1)C(=O)c1ccccc1S2(=O)=O)N1CCCCCC1` it is inactive: -36.1%. Next, `Cc1ccc(N2CC(NC(=O)c3ccco3)CC2=O)cc1` (stereo not given): inactive: -10.3%; `O=C(Nc1cc2c(cc1C(=O)c1ccc(Br)cc1)OCCO2)c1ccc(Cl)cc1`: inactive: -1.77%.

Regarding `Cc1ccc(C)c(S(=O)(=O)c2cn(C)c3cc(F)c(F)cc3c2=O)c1`, the “activity change, negative = inhibition” value was inactive: -9.55%. Next, `CC(=O)Nc1ccccc1-c1nc2ccccc2n(CC(=O)Nc2ccc(C)c(Cl)c2)c1=O`: inactive: -2.66%. The figure for `COc1ccc(CCn2c(=O)c3ccccc3n(CC(=O)Nc3cccc(C)c3)c2=O)cc1OC` is inactive: 14.6%; for `Cc1ccc(S(=O)Cc2ccc(C(=O)NC3CCCCCC3)o2)cc1` (stereo not given) it is inactive: -10%. For `Cc1ccccc1CN1C(=O)c2ccccc2S(=O)c2ccc(C(=O)NCc3ccco3)cc21` (stereo not given), the “activity change, negative = inhibition” value was inactive: -22.6%.

In the case of `Cc1[nH]c2ccc(C(=O)Nc3ccc(F)cc3)cc2c1C`, the “activity change, negative = inhibition” value was inactive: 64.5%. Next, `CCN(C(=O)CCS(=O)(=O)c1ccc2c(c1)oc(=O)n2C)c1ccc(OC)cc1`: inactive: 20.8% [at 11.5 µM]. As for `Cc1ccc(NC(=O)CSc2nc3c(c(=O)[nH]2)CCC3)cc1Cl`, the “activity change, negative = inhibition” value was inactive: -20.3%. For the molecule `CCS(=O)(=O)N1CCC2(CC1)OC(=O)C(C)=C2C(=O)NCc1cccc(Cl)c1`, the “activity change, negative = inhibition” value is inactive: -18.7%. Next, `CCn1c(COc2cccc(C)c2)nc2ccccc21`: inactive: -13.4%; `COc1cc2c(cc1NC(=O)COc1ccc(Br)cc1C)oc1ccccc12`: inactive: 1.61%. Next, `CC(C)CCNC(=O)CCC(=O)N1Cc2ccccc2Oc2ncccc21`: inactive: 0.0987%. Next, `CCn1c(SCC(=O)Nc2ccccc2)nc2c([nH]c3ccccc32)c1=O`: inactive: -4.21%; `COc1ccccc1C(=O)Nc1c(C(=O)N2CCN(c3ccccc3F)CC2)oc2ccccc12`: inactive: -26.7%. With `COc1ccc(NC(=O)CCCSc2nc(-c3ccco3)cc(C(F)(F)F)n2)cc1`, the “activity change, negative = inhibition” value is inactive: -28.9%. Next, `Cc1cc2c(cc1S(=O)(=O)NCc1ccccc1)OCC(=O)N2`: inactive: -24.9%; `O=C(c1ccccc1)c1ccc2nc(N3CCN(c4ccccc4)CC3)c3nncn3c2c1`: inactive: -19.7%. The figure for `Cc1ccc(CNC(=O)c2ccc3c(c2)NC(=O)C(CS(=O)(=O)Cc2ccc(F)cc2)N3)cc1` (stereo not given) is inactive: 0.0395%; for `CN(C)c1cccc(C(=O)Nc2nc3ccc(S(=O)(=O)NC(C)(C)C)cc3s2)c1` it is inactive: -27.8%. Next, `CCC1CCCCN1CCCNC(=O)c1cn(CC)c2ccc(S(=O)(=O)N(C)C3CCCCC3)cc2c1=O` (stereo not given): inactive: -6.69%; `Cc1nc2ccc(S(=O)(=O)CCC(=O)Nc3ccc(C(C)C)cc3)cc2s1`: inactive: -11.5%; `O=C(/C=C/c1ccc(O)c(O)c1)O[C@@H]1C[C@@](OC(=O)/C=C/c2ccc(O)c(O)c2)(C(=O)O)C[C@@H](O)[C@@H]1O`: inactive: 11.5%. `COC(=O)c1sc(-c2ccccc2)cc1NC(=O)Nc1ccccc1Cl`: the “activity change, negative = inhibition” value is inactive: -22%.

As for `Cc1cc(C)cc(Nc2nc3ccccc3nc2-n2nc(C)cc2C)c1`, the “activity change, negative = inhibition” value is inactive: -8.54%.

Turning to `CCOC(=O)N1CCc2c(sc3c2c(=O)n(Cc2ccccc2)c(=O)n3CC(=O)Nc2cccc(C)c2)C1`, the “activity change, negative = inhibition” value is inactive: -6.29%. With `COc1ccc(-c2cn3c(n2)sc2cc(C(=O)Nc4c(C)cccc4C)ccc23)cc1`, the “activity change, negative = inhibition” value is inactive: -12.7%.

`Cc1ccc(CNC(=O)C2(c3cccs3)CCOCC2)cc1`: the “activity change, negative = inhibition” value is inactive: -2.91%.

For the molecule `CCCCC(=O)Nc1cc(-c2nc3cccnc3s2)ccc1C`, the “activity change, negative = inhibition” value is inactive: 26.3%. Next, `CCOc1ccc(NC(=O)CSc2ncnc3c2sc2ccccc23)cc1`: inactive: 3.01%; `CN(C)S(=O)(=O)c1ccc(C(=O)Nc2c(C(=O)Nc3ccc(F)cc3)oc3ccccc23)cc1`: inactive: 2.16%; `COc1ccc(C(=O)n2nc(-c3ccc(Cl)cc3)nc2NCc2ccco2)cc1`: inactive: 9.68%. `CCc1ccc(NC(=O)c2cc3c(COC(C)=O)cnc(C)c3oc2=O)cc1`: the “activity change, negative = inhibition” value is inactive: 1.42%.
